{"source": "patent US20250353901A1", "about": "(ON TARGET MOLECULES BIOTECH, published 2025)", "binders": {"B1": {"name": "Fusion Protein 2G7.A8 scFv-hFc-7F11.B9 scFv (Fc fusion)", "chain": "EVKLEESGGGLVQPGGSMKLSCVASGFTFSNYWMNWVRQSPEKGLEWVAQIRLRSDDYATHYAESVKGRFTISRDDSQSSVYLQMNNLRAEDTGIYYCTGPANWGYWYFDVWGTGTTVTVSSGGGGSGGGGSGGGGSDVLMTQTPLSLPVSLGDQASISCRSSQSIVQTNGNTYLEWYLQKPGQSPKLLIYKVSNRFSGVPDRFSGSGSGTDFTLKISRVEAEDLGVYYCFQGSHVPLTFGAGTKLELKGGG[letters of human IgG1 Fc not shown]GGGEVQLQQSGTVLARPGASVKMSCKTSGYTFTSYWMHWVKQRPGQGLEWIGAIYPGNSDTSYNQKFKGKAKLTAVTSASTAYMELSSLTHEDSAVYYCTRRGYYYGSSSHFDYWGQGTTLTVSSGGGGSGGGGSGGGGSDVVMTQTPLSLPVSLGDQASISCRSSQSLVHSNGNTYLHWYLQKPGQSPKLLIYKVSNRFSGVPDRFSGSGSGTDFTLKISRVEAEDLGVYFCSQSTHVPPTFGGGTKLEIK", "notes": "also called Fc fusion protein; 7F11.B9 scFv-hFc-2G7.A8"}}, "target": "T1, P2X7 (human, UniProt Q99572 1-595)", "T1 construct": "also called human P2X7 receptor; P2X7 receptor", "T1 sequence (looked up)": "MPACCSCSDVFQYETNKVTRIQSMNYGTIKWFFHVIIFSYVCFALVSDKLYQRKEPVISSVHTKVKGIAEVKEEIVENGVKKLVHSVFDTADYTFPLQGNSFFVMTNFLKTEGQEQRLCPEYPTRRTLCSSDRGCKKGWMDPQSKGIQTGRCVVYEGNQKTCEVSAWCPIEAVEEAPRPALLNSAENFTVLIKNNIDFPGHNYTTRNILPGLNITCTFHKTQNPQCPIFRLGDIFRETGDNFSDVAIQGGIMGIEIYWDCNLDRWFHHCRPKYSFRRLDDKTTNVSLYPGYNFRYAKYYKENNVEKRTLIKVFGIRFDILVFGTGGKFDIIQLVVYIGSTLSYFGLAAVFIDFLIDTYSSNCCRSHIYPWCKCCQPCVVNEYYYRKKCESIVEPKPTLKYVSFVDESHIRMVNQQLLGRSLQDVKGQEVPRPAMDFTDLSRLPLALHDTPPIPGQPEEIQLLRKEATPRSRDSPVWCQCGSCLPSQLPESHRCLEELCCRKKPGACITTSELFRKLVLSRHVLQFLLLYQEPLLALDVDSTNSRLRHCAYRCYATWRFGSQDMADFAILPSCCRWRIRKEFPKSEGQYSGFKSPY", "test": "protein painting and mass spectrometry of treated prostate and bladder cancer cell lines", "data": [{"binder": "B1", "values": [{"measurement": "binding result", "result": "no binding"}]}]}
